We go through 167 variants from the RNAGym collection of RNA variant scans (doi:10.7554/elife.90254).

The source gives no read counts; variants with many changes may rest on few reads.

Sequences and labels used below:
B1: LINE1-mini (parent)
chain: GGCAGAGCUCAACACAGCGUGGCAAAGUGGCUGUGGCUAGACUGCC

The series covers variants of B1. The experiment in a line: self-cleavage, relative activity (ratio to wild type); higher = more cleavage; in vitro, sequencing; the parent is a self-cleaving ribozyme.
Turning to G17U G35C C46G, the self-cleavage is 0.02. Regarding G17U G35C C46A, the self-cleavage was 0.08.

As to G17U U20G U34G, the self-cleavage came out at 0.1.

Take C18A U20G G40C: the self-cleavage came to 0.01. With C18A G19U C31U, the self-cleavage worked out at 0.01.

For G17U G21C C23U, the self-cleavage turned out to be 1.24. The result for C18G G19A G22U A25U C31U reads 0.09; that for G17U G19U U43G C45G, 0.05; that for G17U C31U C37U, 0.04. The same measure for G17C G35C C45G: 0.02; for C18A C23G A25G: 0.11; for G17A G33U C37A: 0.28. For the variant C18G A24G G33U A39U, the self-cleavage turned out to be 0.05. For G17U G19C A25G G27A, the self-cleavage turned out to be 0.18. The same measure for G17A C18U G21U: 0.1. In the case of G17U U20G A26G U34C A41C C46A, the self-cleavage was 0.01. G17C U20A C37A: the self-cleavage was found to be 0.04.

As to G17U G29C C42U, the self-cleavage came to 0.07. On to G17C U34C C37U G44A, for which the self-cleavage stood at 0.03.

With C18A G19A U32A G35C, the self-cleavage was determined as 0.01. The same measure for G17C U20A G30A U34G: 0.01; for C18A A24C G29U C42G: 0.02. The same measure for C18A G33U G35C: 0.02. Consider C18G C23A G29U U32G, for which the self-cleavage is 0.05.

As to G17U U20A G27U C46A, the self-cleavage was determined as 0.22. The result for G17A G27U C31U reads 0.29; that for G17C C23U A26U G33U, 0.03. The same measure for A16U G27C G30U: 0.16; for C18A G22A G27U: 0.82; for G17C G22C C23U: 0.52. The same measure for A16U U20A C23A C37U U38C C46A: 0.03. As for G17U G21A U28A G36A C37A, the self-cleavage was determined as 0.04. As for G17U A25U G27U A41U, the self-cleavage is 0.08. The result for G17U G30C U34C reads 0.03. The result for G17C U28G U34G reads 0. The result for G17A A24U G30U U43A reads 0.04. As for G17U G29U U34A, the self-cleavage worked out at 0.01. The same measure for G17U G21C C23A A26U: 0.07. The result for C18A U43C C46U reads 0.04. C18A G35C C45U: the self-cleavage stood at 0.02. With A16U G19U G33C, the self-cleavage amounted to 0.02. The result for G17U U28A G35U reads 0.04; that for C18A A26G U32G A39U, 0; that for G17A G29C G36C C42G, 0.03. The same measure for G17A A26U G27C: 0.04; for C18A G19C A24G G33A G35C C42G: 0.03. Take G17U C23U A25C A26C C42U: the self-cleavage came out at 0.05.

Regarding G17A U28C G29C C46U, the self-cleavage stood at 0.26. The result for G17C C18A U34G reads 0.01. Turning to C18A G19C C31U G40A C45G, the self-cleavage was 0.02. Turning to G17C A39U C46A, the self-cleavage came out at 0.06.

On to G17U G22A G27U, for which the self-cleavage was determined as 0.22. The result for C18A A25U G40A reads 0.03. Take C18A G44U C45G: the self-cleavage was 0.07. The same measure for G17C C18U G29C G30U G36C: 0.03; for C18G A26C C37G: 0.03.

For the variant G17C U20C G30A C42U, the self-cleavage was 0.13. The same measure for C18G C37A G40C: 0.2; for G17A G21A G35U A39C G40A: 0.01. As for C18A U20A C23U C31G A41U, the self-cleavage amounted to 0.01.

Consider G17U C31G C37G, for which the self-cleavage stood at 0.02. The result for G17C G22A C37U reads 0.07; that for G17C U38C U43A, 0.08; that for G17C C37U C42G, 0.03. In the case of C18A U38G A39U, the self-cleavage is 0.07. The result for G17A G21C C31A G33A reads 0.05; that for G17U C18G G27U U43C, 0.04. The same measure for G17U G27C G35A A39C: 0.04; for C18A U28C G44U: 0.11. The result for A16U U20A U28C C31G reads 0.02; that for G17U C23A C42U U43A C46A, 0.08. Turning to G17C G27C C45A, the self-cleavage came to 0.41. The same measure for C18G C23U C42U: 0.05; for C18A C23U U32C G33A C45U: 0.03. The result for G17C G21U G33A reads 0.02; that for G17A C23A U34A C45G, 0.01. The same measure for G17A C23U U34A: 0.01. With G17C G27A G40U C46U, the self-cleavage was 0. The result for C18A C31A G33U G35U C46A reads 0.09; that for C18A A26U U38G G40A, 0.01; that for G17A U28A G36A C45U, 0.02. The result for G17A C31A U34A C37A reads 0.01; that for G17U A24G C31A G40A, 0.01. The same measure for G17A U34G G44C: 0.03; for G17A U28A G30A C37G G44U: 0.01; for G17U U20A G22A: 0.82. For the variant A16U U34A G36C, the self-cleavage was 0.01. The result for G17C C18U C23U A25U A39G reads 0.05; that for G17A C23U A41G, 0.09; that for G17C G22A C23U, 1.23.

For G17U C45G C46G, the self-cleavage is 0.02. The same measure for G17A G27U C31G G44C: 0.03; for C18G A39U G44C: 0.04.

For C18G A39U G44U, the self-cleavage worked out at 0.13. The result for A16U G19U U28A G36C C45A reads 0.02; that for G17U G27C G35U C37G, 0.1; that for G17A U28C A39C, 0.03. The result for G17U G30C G36U reads 0.08; that for A16U G19A G27A G35A U38A U43C, 0.03.

Consider C18A U20C A24U, for which the self-cleavage stood at 0.29. The result for G17A U20A G29U reads 0.08; that for C18A G19U A26C G29U, 0.31; that for G17C U28G C46A, 1.09. The result for A16U G22A A25C G29A A41U reads 0.11; that for G17A G29U U38A, 0.03. The result for G17C G29U U34G C45A reads 0.05; that for C18A G30U G35C C37A C45G, 0.03; that for C18G G19C A26U G33C C42G, 0.05. Take G17U C23A G30C G36A U38G G40U: the self-cleavage came to 0.06. With G17A G22A G27U U28A G29U, the self-cleavage turned out to be 2.15.

G17U G19A U34C C42G: the self-cleavage is 0.03.

With A16U G22A G30C A41G, the self-cleavage was found to be 0.08.

G17U C18G G44A: the self-cleavage was 0. The result for G17A U20G A39G reads 0.02; that for G17C C23U G30A C31A, 1.58. The result for G17U G21A C23G reads 0.05; that for C18A C23G A39G, 0.05; that for C18A G21U C23G G27U, 0.38.

Take G17U C23U U38G: the self-cleavage is 0.02. Consider G17A G27U G29A C31G U43A, for which the self-cleavage was 0.01.

For the variant C18G C23U A25U G27A U38A, the self-cleavage amounted to 0.39. Take C18G A24C U28A U32C: the self-cleavage stood at 0.04. The result for C18A G22A C23U U34A reads 0.01. The same measure for C18A C23G G44A: 0.13; for G17A G19A U32G G36C U38G: 0.02. The same measure for G17U G19C G27U G29C: 0.59; for G17A A25C C42A U43C: 0.01. On to A16U G21A G29C C45A, for which the self-cleavage turned out to be 0.86. For G17C C18G G44U, the self-cleavage came to 0.08.

Consider C18A G40U C46G, for which the self-cleavage is 0.08.

For G17U U20C A39U, the self-cleavage was determined as 0.21.

As to G17U G33A C42U, the self-cleavage worked out at 0.02.

As for G17C U20C C23A, the self-cleavage was 0.87. The same measure for G17U A26C C45A C46U: 0.01. The result for A16U U34C C46G reads 0.08; that for A16U G19U G27U, 0.64. Take G17U G33A A39C C42U: the self-cleavage worked out at 0.13. The result for G17U C31A G44A reads 0.43; that for G17U G19U G21U C23G C31G, 0.59. In the case of G17C U20C C46U, the self-cleavage came out at 0.05. The same measure for G17U G19U A25G C37G: 0.18.

In the case of A16U U20G U34G, the self-cleavage is 0. The same measure for C18A G27U U43C: 0.02; for G17A U20A A39C: 0.14. The same measure for G17C C23G G35U: 0.02; for C18A A39G C45U: 0.04; for C18G G19A G40C: 0.05. The same measure for G17C C37G G40U C42U: 0.02. For C18G C31A G36C, the self-cleavage amounted to 0.07. The result for A16U G22U A26C reads 0.03; that for G17U G21U G22U, 0.5; that for G17U G22U C23A U32A C42A, 0.03. The result for C18G A25G G44A C46A reads 0.02; that for C18G G19A G21A, 0.57; that for G17A G19C G22U A41U C42G, 0.02. The same measure for G17C C18A C46G: 0.09; for G17A C18U U32C G35U: 0.01. In the case of G17A G22U A24U U28G, the self-cleavage was 0.2. The same measure for G17C C23U U38A G40U: 0.09; for C18A A24U U34A G35A G36A: 0.17; for C18A A25G G35A A41G: 0. The result for G17A C23U G35A reads 0.17; that for G17U C23G G29C C31U A39C, 0.01; that for A16U G29U G35U, 0.02. With C18A G21U G22C G29A G30C, the self-cleavage amounted to 0.15. The same measure for C18A G29C C42G: 0.05. The result for C18G C23G U43A reads 0.07.
